Experimental findings from paper PMC6212790 are described below.

The other results are listed elsewhere or left out. At the low end of the ranking the order means little.

The target of the assay is T1, GST-Rok (full length) (UniProt O34857).
T1 sequence: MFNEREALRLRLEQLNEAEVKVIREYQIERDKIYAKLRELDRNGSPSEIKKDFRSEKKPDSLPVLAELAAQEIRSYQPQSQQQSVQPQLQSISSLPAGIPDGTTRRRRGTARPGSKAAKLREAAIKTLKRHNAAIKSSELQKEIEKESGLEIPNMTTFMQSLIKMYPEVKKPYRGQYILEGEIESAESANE
As to the kind of experiment: protein binding microarray.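 Also: rank score from −0.5 (least bound) to 0.5 (best bound).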 The following applies: Rok is a gene silencer of Bacillus subtilis; high values mean tight binding; most listed sequences are background and not binding sites; double strand, one strand shown.
The sequence CGCACGGC showed a binding signal of -0.169 E-score. As for CTCAACCC, the figure is -0.161 E-score.

Take GCCCGCGC: the binding signal was -0.345 E-score.

Consider AATCTTCA, for which the binding signal turned out to be 0.078 E-score. Take AAGATGAC: the binding signal stood at 0.0776 E-score. As for GAACTTCA, the figure is 0.0379 E-score. Sequence ATCACTCC gave a binding signal of -0.0127 E-score. In turn, AAGAGAGC gave a binding signal of -0.115 E-score. As for AACACGCT, the figure is 0.092 E-score.

Sequence CCCGTGAC gave a binding signal of -0.289 E-score.

For the sequence ACTGGTGC, the binding signal is 0.00665 E-score. In the case of TACGCCTA, the binding signal was -0.0214 E-score. For GGCATAAA the value was -0.00232 E-score.

As for AGCAACCT, the binding signal is -0.121 E-score. As for TAGAAAAA, the figure is 0.3 E-score; as for TAGGAACA, 0.118 E-score; as for CTTTTAGC, 0.0796 E-score. As for CCCTCACA, the figure is -0.265 E-score; as for CTATCGCC, -0.072 E-score. Consider AGTTAGCG, for which the binding signal came out at 0.064 E-score. As for AGTTAGTG, the figure is 0.0885 E-score. On to AAAACCCT, for which the binding signal is -0.212 E-score. For ATGGAATG the value was 0.0653 E-score; for AGACGGAG, -0.27 E-score; for TAATGGAA, 0.193 E-score. Sequence AGTGCCCA had a binding signal of -0.21 E-score. For GGGACACC the value was -0.245 E-score. As for GGGAAGCA, the figure is -0.199 E-score; as for ATCGTATA, 0.244 E-score; as for AAACTATG, 0.195 E-score. As to CGCAGAAA, the binding signal is -0.119 E-score. For AAATGCCC the value was -0.0117 E-score; for CGTAAGCC, -0.198 E-score; for AATTTCTG, 0.158 E-score.

The sequence CACTTCAA returned a binding signal of -0.11 E-score. The sequence CTTGTAGA displayed a binding signal of 0.186 E-score.

For TACGGACA, the binding signal worked out at 0.0616 E-score.

On to AAAAGTCT, for which the binding signal is 0.00793 E-score. For the sequence CCCCACGA, the binding signal is -0.304 E-score. As for CAATTCTA, the figure is 0.278 E-score. As for AGAACATC, the figure is -0.0292 E-score; as for AGTTGGGC, 0.0454 E-score. As for AATTGCGT, the figure is 0.3 E-score; as for GAAGTCGA, 0.0904 E-score; as for AACGTTAT, 0.216 E-score. Consider ATTCGTCG, for which the binding signal was found to be 0.21 E-score. For CGGGCTTA the value was -0.258 E-score. For AGCACGTG the value was 0.0178 E-score; for ATCGCCTA, -0.165 E-score; for ATCATCAA, -0.11 E-score.

For AACAAATG, the binding signal is 0.0365 E-score.

In turn, GACGTCTC registered a binding signal of -0.121 E-score. In turn, GCTGGCTA displayed a binding signal of -0.129 E-score. For ATTCTGAG the value was 0.0932 E-score; for GGCATCCC, -0.344 E-score.

Regarding CCTAATCG, the binding signal was -0.00644 E-score. For ACCTCTTC the value was -0.21 E-score; for CCTCAGAA, -0.0228 E-score. As for ACAAGGAC, the figure is -0.0597 E-score; as for ACTTGAAA, 0.0856 E-score; as for GAAGTCAC, -0.0246 E-score. On to CGTATTGA, for which the binding signal was found to be 0.15 E-score.

In turn, GGGGGGCA gave a binding signal of -0.399 E-score. For AAATCTGT the value was 0.214 E-score; for GGACGTCC, -0.183 E-score.

Consider ACCGGTAC, for which the binding signal turned out to be 0.00493 E-score. Regarding CTAGGGCA, the binding signal is -0.14 E-score. For TCCCACGA the value was -0.153 E-score; for ATAGCGTG, -0.0395 E-score. On to TGATTCAA, for which the binding signal was -0.164 E-score. For the sequence ACTCACCA, the binding signal worked out at 0.0407 E-score. As for GAGGCTCC, the figure is -0.339 E-score. For AAGCGTGG, the binding signal is -0.109 E-score. TAATATTA gave a binding signal of 0.304 E-score.

For ATTAATGA, the binding signal turned out to be 0.18 E-score. As for TCACTCCA, the figure is -0.0035 E-score.

The sequence GTTTCTGA displayed a binding signal of 0.161 E-score. As for CTGGCAAC, the figure is -0.152 E-score; as for GTCGCTAA, 0.16 E-score. As for TACAGAAA, the figure is 0.177 E-score. The sequence CCTCACCA had a binding signal of -0.137 E-score. Sequence AGTGACTA gave a binding signal of 0.145 E-score. For AAAAAGTG the value was -0.135 E-score. As for AACCCACA, the figure is 0.0127 E-score; as for ACCCCCGA, -0.452 E-score; as for GATGCACA, 0.0111 E-score. As for GCACTACA, the figure is -0.0483 E-score; as for AATGCGTC, 0.0567 E-score; as for CAAGTGTA, 0.163 E-score.

In turn, TGGTGGAA returned a binding signal of -0.0913 E-score.

The sequence AACTTAAC yielded a binding signal of 0.178 E-score. For ACGTAGTG the value was 0.0335 E-score.

With CTTCCTAA, the binding signal was -0.00177 E-score.

As to AATCATGG, the binding signal was -0.0415 E-score.

Regarding GACAGCCA, the binding signal is 0.0747 E-score. AGCAGTCA: the binding signal came to 0.0758 E-score.

With AGTTTACG, the binding signal came out at 0.182 E-score.

For GGCCGGAA, the binding signal was -0.178 E-score. Turning to ACTCTTTG, the binding signal was determined as 0.0631 E-score. As for GGTGCAAC, the figure is -0.11 E-score; as for CCAATGAA, -0.228 E-score.

Sequence CTCAAATC came in with a binding signal of 0.0994 E-score. As for CCCCAACC, the figure is -0.378 E-score. Regarding AAGTGGCT, the binding signal stood at 0.0139 E-score.

As for AGGTCAGC, the binding signal is -0.133 E-score.

The sequence CCCGCTGA came in with a binding signal of -0.0983 E-score. AGTCAACT came in with a binding signal of 0.127 E-score. Sequence AACTGTCT showed a binding signal of -0.0746 E-score.

In turn, ATGAAGGC had a binding signal of -0.181 E-score. As for AAGAGTAC, the figure is 0.148 E-score; as for ACCCGAGG, -0.208 E-score.

Take CCTCGCAA: the binding signal turned out to be 0.00653 E-score. GCTCGGAC yielded a binding signal of -0.286 E-score. For CTGCAATA the value was 0.13 E-score; for GATTAATA, 0.315 E-score; for ACGTTGGG, -0.04 E-score. Sequence ATGATAAG gave a binding signal of 0.108 E-score. In turn, GCAAGTTA came in with a binding signal of 0.261 E-score. In the case of AACAATGC, the binding signal was 0.00799 E-score. As for AAGATTCT, the figure is 0.175 E-score. Consider ACAGGAGA, for which the binding signal was -0.184 E-score. For ACGTTATC the value was 0.179 E-score; for AAAGCACG, -0.137 E-score. As for ACATAGGT, the binding signal came out at 0.0815 E-score. For CTGCAAGA the value was -0.231 E-score; for GCATTCTA, 0.227 E-score; for CCGACAGG, -0.267 E-score. For CAGTCATA the value was 0.0664 E-score. For CGTGTTCC the value was -0.208 E-score; for CACCCGCA, -0.165 E-score; for ATTAAATC, 0.0773 E-score. For GCTACTAA, the binding signal is 0.199 E-score. For AAAGAGTC the value was -0.095 E-score; for CAATCGTA, 0.113 E-score; for CCCACCCG, -0.284 E-score. As for ATTGAAGC, the binding signal was 0.0102 E-score. Consider ACATGGCC, for which the binding signal was -0.0777 E-score. CCGGCACC had a binding signal of -0.332 E-score. As for GACAACTA, the figure is 0.333 E-score; as for CCAGTAGA, 0.166 E-score.

The sequence CCCTGCCC had a binding signal of -0.447 E-score.

Consider AACTGCTG, for which the binding signal was -0.0396 E-score. For TCTATCAA, the binding signal amounted to 0.212 E-score. As for AGTGCTGA, the figure is -0.24 E-score; as for CCAATGGC, -0.174 E-score; as for AGAACGAG, -0.16 E-score.

The sequence CGCTGTTA showed a binding signal of -0.0621 E-score. GGCTTTGA yielded a binding signal of -0.332 E-score.

With ATCTATCA, the binding signal was determined as 0.409 E-score.

Turning to AGCTAGGC, the binding signal is -0.143 E-score.

ATCCTCTG displayed a binding signal of 0.0742 E-score.

Consider AGAACCCG, for which the binding signal was -0.253 E-score. As for CGCTAGAG, the figure is -0.0128 E-score; as for CAGCTTCA, -0.268 E-score; as for CCGCGCTA, -0.00372 E-score. With AAAACTGG, the binding signal was 0.00884 E-score. For AAGCAGGC the value was -0.339 E-score; for GAGATACA, 0.193 E-score; for AACCAGTG, -0.018 E-score. For the sequence GATCATGC, the binding signal was -0.11 E-score. Sequence ACCCTGGG yielded a binding signal of -0.232 E-score. With AATAGTCG, the binding signal was determined as 0.0668 E-score. For AATACATC the value was 0.209 E-score; for GCCGATCA, 0.0608 E-score. As to CTATGACC, the binding signal is -0.105 E-score.

CCTGGGAA gave a binding signal of -0.171 E-score. For AGCAGATG the value was 0.252 E-score. As for CACTGTAC, the figure is 0.0796 E-score; as for ACAAGACT, -0.0271 E-score. As for AGGCCAGC, the figure is -0.341 E-score; as for CAGGCCTC, -0.288 E-score; as for CAAACCAG, -0.185 E-score.
